Assay results reported in the supplement of paper PMC8183993.
Structures can show the parent of a compound that is named as a salt. ± gives the standard deviation of the averaged measurements. The full ranking holds about 3,100 compounds; the median of “mean cytoplasmic OPP incorporation (global translation) relative to DMSO” is about 100, and the lowest 2% start at about 56. This is one part of the list.

Test system: U2OS
Test: mean cytoplasmic OPP incorporation (global translation) relative to DMSO (% of DMSO); higher = more protein synthesis
Conditions: 10 µM; 24 h
Description: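 Primary image-based screen in U2OS cells: compounds at 10 uM for 24 h, then a 1 h o-propargyl-puromycin (OPP) pulse, click labelling, and high-throughput microscopy. Mean cytoplasmic OPP intensity and nuclei count were normalised to DMSO wells within each plate (DMSO = 100) and averaged over triplicate plates.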

Question: How did the “mean cytoplasmic OPP incorporation” value turn out when `O=C(NCCCNc1nc(Nc2cccc(NC(=O)N3CCCC3)c2)ncc1I)c1cccs1` was run?
Answer: The value was 88.3 ± 4.3.

Question: For `N=C(CC(O)COc1ccccc1-c1ccccc1)N1CCCCC1` (stereo not given), which “mean cytoplasmic OPP incorporation” value is on record?
Answer: The value was 102.

Question: How did the “mean cytoplasmic OPP incorporation” value turn out when `Cc1ccccc1C(=O)Nc1ccc(C(=O)N2CCCC(N(C)C)c3ccccc32)cc1` (stereo not given) [Mozavaptan] was run?
Answer: The value was 96.6.

Question: With `CCCOc1ccc(Br)cc1-c1cc(-c2ccc(Cl)cc2)[nH]c1-c1ccncc1` as the compound, how does the “mean cytoplasmic OPP incorporation” value read?
Answer: The value was 100.

Question: For `C=C[C@@](C)(/C=C/c1ccc(O)cc1)CCC=C(C)C` [Bakuchiol], which “mean cytoplasmic OPP incorporation” value is on record?
Answer: Its value is 113.

Question: For `NS(=O)(=O)c1ccc(NC(=O)Nc2ccc(F)cc2)cc1`, which “mean cytoplasmic OPP incorporation” value is on record?
Answer: The value was 98.7.

Question: `CC(=O)CC(c1ccc([N+](=O)[O-])cc1)c1c(O)c2ccccc2oc1=O` (stereo not given) [Acenocoumarol] was tested. Which “mean cytoplasmic OPP incorporation” value did it give?
Answer: Its value is 96.8.

Question: Which “mean cytoplasmic OPP incorporation” value does the source give for `CCCCCCCCNC(C)C(O)c1ccc(SC(C)C)cc1` (stereo not given) [Suloctidil] here?
Answer: Its value is 103.

Question: How did the “mean cytoplasmic OPP incorporation” value turn out when `S=c1[nH]cnc2nc[nH]c12` [Mercaptopurine] was run?
Answer: The value was 75.8 ± 4.5.

Question: For `O=C(Nc1ccccc1)N[C@@H]1C[C@@H](C(=O)O)Nc2cc(Cl)cc(Cl)c21`, which “mean cytoplasmic OPP incorporation” value is on record?
Answer: Its value is 105.

Question: With `Cc1ccc(Sc2ccccc2N2CCNCC2)c(C)c1` as the compound, how does the “mean cytoplasmic OPP incorporation” value read?
Answer: Its value is 114.

Question: How did the “mean cytoplasmic OPP incorporation” value turn out when `CN1CCC(CNc2ccc3ncc(-c4cccc(OC(F)(F)F)c4)n3n2)CC1` [SGI-1776 free base] was run?
Answer: The value was 110 ± 2.

Question: With `NCC(=O)CCC(=O)O` [5-Aminolevulinic acid HCl] as the compound, how does the “mean cytoplasmic OPP incorporation” value read?
Answer: The value was 102.

Question: With `CC(C)[C@H](NS(=O)(=O)c1ccc(-c2ccc(Br)cc2)cc1)C(=O)O` as the compound, how does the “mean cytoplasmic OPP incorporation” value read?
Answer: The value was 98.7.

Question: With `CNCCC=C1c2ccccc2C=Cc2ccccc21` [Norcyclobenzaprine] as the compound, how does the “mean cytoplasmic OPP incorporation” value read?
Answer: Its value is 97.5.

Question: `NC(=O)c1ccc[n+]([C@@H]2O[C@H](COP(=O)([O-])OP(=O)(O)OC[C@H]3O[C@@H](n4cnc5c(N)ncnc54)[C@H](O)[C@@H]3O)[C@@H](O)[C@H]2O)c1` [Nadide] was tested. Which “mean cytoplasmic OPP incorporation” value did it give?
Answer: Its value is 94.5.

Question: Which “mean cytoplasmic OPP incorporation” value does the source give for `COc1cc2c(cc1OC)[C@@H]1Cc3ccc(OC)c(OC)c3CN1CC2` [Rotundine] here?
Answer: Its value is 101.

Question: Which “mean cytoplasmic OPP incorporation” value does the source give for `O=C(CCCN1CCC(O)(c2ccc(Cl)cc2)CC1)c1ccc(F)cc1` [Haloperidol] here?
Answer: Its value is 103.

Question: `O=C(CCCN1CCC(O)(c2ccc(Cl)cc2)CC1)c1ccc(F)cc1` [Haloperidol hydrochloride] was tested. Which “mean cytoplasmic OPP incorporation” value did it give?
Answer: Its value is 103.

Question: For `O=c1[nH]c2cc(Cl)ccc2c(O)c1-c1cccc(Oc2ccccc2)c1`, which “mean cytoplasmic OPP incorporation” value is on record?
Answer: The value was 103.

Question: For `Cc1ccc(C)c(OCCCC(C)(C)C(=O)O)c1` [Gemfibrozil], which “mean cytoplasmic OPP incorporation” value is on record?
Answer: The value was 98.8 ± 3.4.

Question: With `O=C(O)C[C@H](O)C[C@H](O)/C=C/c1c(C2CC2)nc2ccccc2c1-c1ccc(F)cc1` [Pitavastatin calcium (Livalo)] as the compound, how does the “mean cytoplasmic OPP incorporation” value read?
Answer: Its value is 111.

Question: `C[C@H]1COC2(CCN(c3nc(=O)c4cc(C(F)(F)F)cc([N+](=O)[O-])c4s3)CC2)O1` (racemic) [BTZ043 racemate] was tested. Which “mean cytoplasmic OPP incorporation” value did it give?
Answer: The value was 97.8.

Question: Which “mean cytoplasmic OPP incorporation” value does the source give for `C[C@]12CCC(=O)C=C1C=C[C@@H]1[C@@H]2CC[C@@]2(C)[C@H]1CC[C@@]21CCC(=O)O1` [Canrenone] here?
Answer: The value was 116.

Question: With `CC1(C)[C@@H](O)CC[C@]2(C)[C@H]3C(=O)C=C4[C@@H]5C[C@@](C)(C(=O)O)CC[C@]5(C)CC[C@@]4(C)[C@]3(C)CC[C@@H]12` [Enoxolone (Glycyrrhetin)] as the compound, how does the “mean cytoplasmic OPP incorporation” value read?
Answer: Its value is 101.

Question: `CC1(C)CC(=O)c2c(C(F)(F)F)nn(-c3ccc(C(N)=O)c(N[C@H]4CC[C@H](OC(=O)CN)CC4)c3)c2C1` was tested. Which “mean cytoplasmic OPP incorporation” value did it give?
Answer: Its value is 104.

Question: For `COC(=O)CCc1ccc(OCC(O)CNC(C)C)cc1` (stereo not given) [Esmolol hydrochloride], which “mean cytoplasmic OPP incorporation” value is on record?
Answer: The value was 105.

Question: For `O=C(NCc1cccc(O)c1)Nc1nc(-c2ccncc2)cs1`, which “mean cytoplasmic OPP incorporation” value is on record?
Answer: The value was 102.

Question: Which “mean cytoplasmic OPP incorporation” value does the source give for `COc1c(C)c2c(c(O)c1C/C=C(\C)CCC(=O)OCCN1CCOCC1)C(=O)OC2` [Mycophenolate mofetil (CellCept)] here?
Answer: The value was 69.4.

Question: `CN1C(C(=O)Nc2ccccn2)=C(O)c2ccccc2S1(=O)=O` [Piroxicam] was tested. Which “mean cytoplasmic OPP incorporation” value did it give?
Answer: Its value is 88.5 ± 19.

Question: For `COCCOC(=O)C1=C(C)NC(C)=C(C(=O)OC(C)C)C1c1cccc([N+](=O)[O-])c1` (stereo not given) [Nimodipine], which “mean cytoplasmic OPP incorporation” value is on record?
Answer: Its value is 107 ± 2.

Question: `CC1(C)S[C@@H]2[C@H](NC(=O)[C@H](N)c3ccccc3)C(=O)N2[C@H]1C(=O)OC1OC(=O)c2ccccc21` (stereo not given in full) [Talampicillin hydrochloride] was tested. Which “mean cytoplasmic OPP incorporation” value did it give?
Answer: Its value is 103.

Question: For `NC(=O)OCC(O)COc1ccc(Cl)cc1` (stereo not given) [Chlorphensin carbamate], which “mean cytoplasmic OPP incorporation” value is on record?
Answer: Its value is 88.6.

Question: How did the “mean cytoplasmic OPP incorporation” value turn out when `O=C(O)c1ccc(-n2nc(-c3ccccc3O)nc2-c2ccccc2O)cc1` [Deferasirox (Exjade)] was run?
Answer: The value was 103.

Question: Which “mean cytoplasmic OPP incorporation” value does the source give for `Clc1ccc(CCCOCCCN2CCCCC2)cc1` here?
Answer: Its value is 99.

Question: Which “mean cytoplasmic OPP incorporation” value does the source give for `Nc1nc(=O)c2c([nH]1)NC[C@H](CNc1ccc(C(=O)N[C@@H](CCC(=O)O)C(=O)O)cc1)N2C=O` [Calcium levofolinate (Calcium Folinate)] here?
Answer: The value was 101.

Question: `COc1ccc(CCc2nc3cc(-c4c(C)noc4C)ccc3n2C[C@H](C)N2CCOCC2)cc1Cl` was tested. Which “mean cytoplasmic OPP incorporation” value did it give?
Answer: The value was 109.

Question: For `Cc1cnc(-c2cnc(NCCNc3ccc(C#N)cn3)nc2-c2ccc(Cl)cc2Cl)[nH]1`, which “mean cytoplasmic OPP incorporation” value is on record?
Answer: The value was 122.

Question: Which “mean cytoplasmic OPP incorporation” value does the source give for `Cc1c(NC(C)C)c(=O)n(-c2ccccc2)n1C` [Isopyrin hydrochloride] here?
Answer: Its value is 98.9.

Question: `NCCc1cc[nH]n1` [Betazole hydrochloride] was tested. Which “mean cytoplasmic OPP incorporation” value did it give?
Answer: The value was 91.2.

Question: With `CCCNC(C)C(=O)Nc1c(C)csc1C(=O)OC` (stereo not given) [Articaine hydrochloride] as the compound, how does the “mean cytoplasmic OPP incorporation” value read?
Answer: Its value is 114.

Question: `COc1cc(N)c(Cl)cc1C(=O)CCC1CCN(CCNS(C)(=O)=O)CC1` was tested. Which “mean cytoplasmic OPP incorporation” value did it give?
Answer: The value was 104.

Question: For `CNCc1ccc(-c2[nH]c3cc(F)cc4c3c2CCNC4=O)cc1`, which “mean cytoplasmic OPP incorporation” value is on record?
Answer: The value was 103.

Question: For `CC(=O)C1=C(O)C=C2Oc3c(C(C)=O)c(O)c(C)c(O)c3C2(C)C1=O` (single isomer, unassigned; (+)) [(+)-Usniacin (D-Usnic acid)], which “mean cytoplasmic OPP incorporation” value is on record?
Answer: The value was 95.8.

Question: `CCNC(=O)c1noc(-c2cc(C(C)C)c(O)cc2O)c1-c1ccc(CN2CCOCC2)cc1` was tested. Which “mean cytoplasmic OPP incorporation” value did it give?
Answer: Its value is 102.

Question: For `COc1cccc(N(C)C(=S)Oc2ccc3c(c2)CCCC3)n1` [Liranaftate], which “mean cytoplasmic OPP incorporation” value is on record?
Answer: Its value is 103.

Question: With `C[C@H](NC[C@H](O)CP(=O)(O)Cc1ccccc1)c1ccc(Cl)c(Cl)c1` as the compound, how does the “mean cytoplasmic OPP incorporation” value read?
Answer: Its value is 95.1.

Question: Which “mean cytoplasmic OPP incorporation” value does the source give for `O=C1NC(=O)c2cc(Nc3ccc(F)cc3)c(Nc3ccc(F)cc3)cc21` here?
Answer: Its value is 107.

Question: Which “mean cytoplasmic OPP incorporation” value does the source give for `Cc1cn([C@H]2C[C@H](N=[N+]=[N-])[C@@H](CO)O2)c(=O)[nH]c1=O` [Zidovudine, AZT] here?
Answer: The value was 106.

Question: For `COc1ccc([C@@H]2Sc3ccccc3N(CCN(C)C)C(=O)[C@@H]2OC(C)=O)cc1` [Diltiazem hydrochloride], which “mean cytoplasmic OPP incorporation” value is on record?
Answer: Its value is 103 ± 3.4.
